Laboratory results published in patent publication US20230257469A1 (SINOCELLTECH, published 2023).

Biological target: T1, recombinant human TGF-β1 protein (human, UniProt P01137 in part)
T1 construct: the ELISA and cell assays say only TGF-β1 protein; also called TGF-β1 factor
Assay: ELISA on coated TGF-β1 according to Example 3.4

T1 sequence (P01137 279-390 limits assumed): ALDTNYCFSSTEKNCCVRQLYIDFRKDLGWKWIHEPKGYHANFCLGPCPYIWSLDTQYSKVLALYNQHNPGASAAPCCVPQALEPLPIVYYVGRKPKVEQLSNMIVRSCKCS

| Binder | binding result |
| --- | --- |
| X/TGFβR2 fusion protein 22 (Bevacizumab, full length TGFβR2 ECD) (other, Signal peptide of 19 residues left out; limits counted from the printed segments) heavy: EVQLVESGGGLVQPGGSLRLSCAASGYTFTNYGMNWVRQAPGKGLEWVGWINTYTGEPTYAADFKRRFTFSLDTSKSTAYLQMNSLRAEDTAVYYCAKYPHYYGSSHWYFDVWGQGTLVTVSS[left out - human IgG1 constant region]GGGSGGGGSGGGGSGGGGSIPPHVQKSVNNDMIVTDNNGAVKFPQLCKFCDVRFSTCDNQKSCMSNCSITSICEKPQEVCVAVWRKNDENITLETVCHDPKLPYHDFILEDAASPKCIMKEKKKPGETFFMCSCSSDECNDNIIFSEEYNTSNPD light: DIQMTQSPSSLSASVGDRVTITCSASQDISNYLNWYQQKPGKAPKVLIYFTSSLHSGVPSRFSGSGSGTDFTLTISSLQPEDFATYYCQQYSTVPWTFGQGTKVEIKRTVAAPSVFIFPPSDEQLKSGTASVVCLLNNFYPREAKVQWKVDNALQSGNSQESVTEQDSKDSTYSLSSTLTLSKADYEKHKVYACEVTHQGLSSPVTKSFNRGEC | binds |
| X/TGFβR2 fusion protein 23 (Bevacizumab, ECD delete (6-26)) (other, Signal peptide of 19 residues left out; limits counted from the printed segments) heavy: EVQLVESGGGLVQPGGSLRLSCAASGYTFTNYGMNWVRQAPGKGLEWVGWINTYTGEPTYAADFKRRFTFSLDTSKSTAYLQMNSLRAEDTAVYYCAKYPHYYGSSHWYFDVWGQGTLVTVSS[left out - human IgG1 constant region]GGGSGGGGSGGGGSGGGGSIPPHVLCKFCDVRFSTCDNQKSCMSNCSITSICEKPQEVCVAVWRKNDENITLETVCHDPKLPYHDFILEDAASPKCIMKEKKKPGETFFMCSCSSDECNDNIIFSEEYNTSNPD light: DIQMTQSPSSLSASVGDRVTITCSASQDISNYLNWYQQKPGKAPKVLIYFTSSLHSGVPSRFSGSGSGTDFTLTISSLQPEDFATYYCQQYSTVPWTFGQGTKVEIKRTVAAPSVFIFPPSDEQLKSGTASVVCLLNNFYPREAKVQWKVDNALQSGNSQESVTEQDSKDSTYSLSSTLTLSKADYEKHKVYACEVTHQGLSSPVTKSFNRGEC | binds |

Results, then the binder that gave them:

| binding result | Binder |
| --- | --- |
| binds | X/TGFβR2 fusion protein 28 (Panitumumab, full length TGFβR2 ECD) (other, Signal peptide of 19 residues left out; limits counted from the printed segments) heavy: QVQLQESGPGLVKPSETLSLTCTVSGGSVSSGDYYWTWIRQSPGKGLEWIGHIYYSGNTNYNPSLKSRLTISIDTSKTQFSLKLSSVTAADTAIYYCVRDRVTGAFDIWGQGTMVTVSS[left out - human IgG1 constant region]GGGSGGGGSGGGGSGGGGSIPPHVQKSVNNDMIVTDNNGAVKFPQLCKFCDVRFSTCDNQKSCMSNCSITSICEKPQEVCVAVWRKNDENITLETVCHDPKLPYHDFILEDAASPKCIMKEKKKPGETFFMCSCSSDECNDNIIFSEEYNTSNPD light: DIQMTQSPAALSASVGDRVTITCQASQDISNYLNWYQQKPGKAPKLLIYDASNLETGVPSRFSGSGSGTDFTFTISSLQPEDIATYFCQHFDHLPLAFGGGTKVEIKRTVAAPSVFIFPPSDEQLKSGTASVVCLLNNFYPREAKVQWKVDNALQSGNSQESVTEQDSKDSTYSLSSTLTLSKADYEKHKVYACEVTHQGLSSPVTKSFNRGEC |
| binds | X/TGFβR2 fusion protein 29 (Panitumumab, ECD delete (6-26)) (other, Signal peptide of 19 residues left out; limits counted from the printed segments) heavy: QVQLQESGPGLVKPSETLSLTCTVSGGSVSSGDYYWTWIRQSPGKGLEWIGHIYYSGNTNYNPSLKSRLTISIDTSKTQFSLKLSSVTAADTAIYYCVRDRVTGAFDIWGQGTMVTVSS[left out - human IgG1 constant region]GGGSGGGGSGGGGSGGGGSIPPHVLCKFCDVRFSTCDNQKSCMSNCSITSICEKPQEVCVAVWRKNDENITLETVCHDPKLPYHDFILEDAASPKCIMKEKKKPGETFFMCSCSSDECNDNIIFSEEYNTSNPD light: DIQMTQSPAALSASVGDRVTITCQASQDISNYLNWYQQKPGKAPKLLIYDASNLETGVPSRFSGSGSGTDFTFTISSLQPEDIATYFCQHFDHLPLAFGGGTKVEIKRTVAAPSVFIFPPSDEQLKSGTASVVCLLNNFYPREAKVQWKVDNALQSGNSQESVTEQDSKDSTYSLSSTLTLSKADYEKHKVYACEVTHQGLSSPVTKSFNRGEC |
